Data on 83 compounds can be found in PubChem BioAssay AID1346428 (National Center for Advancing Translational Sciences (NCATS), 2018).

The campaign covered roughly 48,000 compounds. About 1,200 (2.5%) were called active. Roughly 2% stayed inconclusive and do not appear here.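 Rule for the calls: active = activation of at least 60% and not above a set upper limit (about 1 call in 100 departs from these limits); inconclusive = activation of 40% to 60%, or above that upper limit; inactive = activation under 40%.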 This is one part of the list.

In this assay the target is Probable G-protein coupled receptor 32 (Homo sapiens) (UniProt O75388). Nature of the assay: qHTS for Agonists of Human Resolvin D1 Receptor DRV1. Note: 0% is about no effect. The conditions noted are these: CHO-K1 GPR32 beta-arrestin PathHunter luminescence, 90 min; at 76.9 µM; hits give high values; zero percent set by DMSO-only wells. In short, it runs like this: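 Engineered CHO-K1 line co-expressing GPR32-ProLink and EA-beta-arrestin. Compound treatment lasted 90 min at 37 °C. Luminescence was recorded after 1 h with substrate at ambient temperature, relative to DMSO basal wells.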
Chain of UniProt O75388 (O75388 whole entry, looked up): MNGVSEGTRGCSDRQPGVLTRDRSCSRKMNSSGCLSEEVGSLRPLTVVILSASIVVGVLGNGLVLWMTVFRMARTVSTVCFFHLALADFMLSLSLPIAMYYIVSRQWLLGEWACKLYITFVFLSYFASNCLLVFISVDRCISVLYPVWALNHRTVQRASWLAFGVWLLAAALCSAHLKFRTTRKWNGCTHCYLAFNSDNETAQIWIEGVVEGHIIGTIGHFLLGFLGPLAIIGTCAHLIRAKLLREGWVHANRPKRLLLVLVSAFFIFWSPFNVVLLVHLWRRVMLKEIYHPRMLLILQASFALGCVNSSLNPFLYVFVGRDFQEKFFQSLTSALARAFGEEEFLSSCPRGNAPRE
Background: In qHTS, concentration-response curves come from the screen itself.
For `CCN(CC)c1ccc(NC(=O)CN2CCN(c3ccccc3F)CC2)cc1`, the activation was inactive: -12.7%.

For the compound `O=C(O)Cn1cnnn1`, the activation is inactive: -15.7%. The value for `COC(=O)CN1C(=O)C(C)(C)c2cc(S(=O)(=O)Nc3ccc(Br)cc3F)ccc21` was inactive: -17.9%; that for `Cc1[nH]c2ccc(Br)cc2c1CCNC(=O)c1cc2ccccc2oc1=O` was inactive: 1.18%; that for `CC(=O)N1CCCc2cc(S(=O)(=O)N3CCCC(C(=O)Nc4ccc(C)cc4C)C3)ccc21` (stereo not drawn) was inactive: -2.66%. For `CNCCc1ccccn1`, the activation was inactive: -15.5%. Consider `COc1ccc(-n2nc3cc(C)c(NC(=O)c4ccc(-c5ccc(Br)cc5)o4)cc3n2)cc1`, for which the activation is inactive: -6.14%. As for `COc1cc(OC)cc(C(=O)Nc2cc3c(cc2N2CCOCC2)n(C)c(=O)n3C)c1`, the figure is inactive: 6.99%; as for `Cc1cc(C)n(CCc2nc3c4ccccc4nc(N4CCN(c5cccc(C)c5C)CC4)n3n2)n1`, inactive: 13.1%; as for `CC(=O)c1cccc(-n2c(=O)c3c4c(sc3n(Cc3cccc(C)c3)c2=O)CN(C(C)=O)CC4)c1`, inactive: -4.87%. With `Cc1cccc(NC(=O)CN2C(=O)C(c3ccccc3)=NC23CCC(C)CC3)c1` (stereo not drawn), the activation was inactive: -12.7%.

On to `CCN(CC)CCNC(=O)C(=O)NCC(c1ccc2c(c1)OCO2)N1CCOCC1` (stereo not drawn), for which the activation is inactive: -6.19%.

`CCOc1ccc(-c2nnc(SCC(=O)NCc3ccccc3Cl)o2)cc1`: the activation was inactive: -5.59%. The value for `CCCN1C(=O)c2[nH]nc(-c3ccccc3)c2C1c1cccc(O)c1` (stereo not drawn) was inactive: -8.85%; that for `O=C(CSc1cn(CC(=O)N2CCCCC2)c2ccccc12)NCc1ccccc1` was inactive: -13.6%.

For the compound `COCc1cc(C)nc2c1C(=O)NC(c1ccc(C)cc1)N2Cc1ccccc1` (stereo not drawn), the activation is inactive: -11.9%.

Take `CCOc1ccc(CNC(=O)C2CCN(c3nnc(-n4c(C)ccc4C)s3)CC2)cc1`: the activation is inactive: -15.7%. As for `Cc1ccc(NC(=O)c2oc3ccccc3c2NC(=O)Cc2ccccc2)cc1`, the figure is inactive: -0.428%; as for `COc1ccccc1NC(=O)CSC1=Nc2ccccc2C2=NC(Cc3ccccc3)C(=O)N12` (stereo not drawn), inactive: -24.6%; as for `COc1ccc2c(c1)CCc1sc(NC(=O)c3cccc(Br)c3)nc1-2`, inactive: -20.2%. The value for `CCOc1ccc(S(=O)(=O)N2CCN(c3cccc(C(F)(F)F)c3)CC2)cc1OCC` was inactive: -19.1%. The value for `CCOC(=O)N1CCc2c(sc3c2c(=O)n(Cc2ccccc2)c(=O)n3Cc2cccc(C)c2)C1` was inactive: -11.7%; that for `CCc1nc2c(cnn2-c2ccc(C)cc2)c(=O)n1Cc1ccccc1` was inactive: -0.939%. With `Cc1cc(C)c(S(=O)(=O)NCC(c2ccco2)N2CCOCC2)c(C)c1` (stereo not drawn), the activation was inactive: -0.0887%.

For the compound `CCc1ccc(NC(=O)Cn2c(=O)n(CCCCC(=O)NCc3ccccc3Cl)c(=O)c3ccccc32)cc1`, the activation was inactive: -2%. The value for `Cc1ccc(-c2onc(C)c2C)cc1S(=O)(=O)NCc1ccc(N(C)C)cc1` was inactive: 7.76%; that for `O=C(NCc1ccccc1)C(=O)NCC(c1ccco1)S(=O)(=O)c1ccc(Cl)cc1` (stereo not drawn) was inactive: -8.59%; that for `COc1ccccc1-c1nnc(C2CCN(C(=O)c3cccc(C)c3)CC2)o1` was inactive: 2.98%. Turning to `COc1cccc(Cn2c(=O)n(-c3cccc(Cl)c3)c(=O)c3c4c(sc32)CN(C(C)=O)CC4)c1`, the activation was inactive: -12.8%. The value for `C=CCC(CC=C)(CNC(=O)C(=O)Nc1ccc(C)cc1)c1ccccc1` was inactive: -11.3%.

For `CCOc1cc(OCC)cc(C(=O)Nc2cccc(-c3nc4ccccc4[nH]3)c2)c1`, the activation is inactive: -18.3%. The value for `CCOc1ccc(NC(=O)CN2CCN(S(=O)(=O)c3ccc(OC)cc3)CC2)cc1` was inactive: 11.4%; that for `COc1ccc(NC(=O)c2cc(C)nc3c2c(C)nn3-c2ccc(C)cc2)cc1OC` was inactive: -12.5%. The value for `Cc1ccccc1Nc1nn2c(=O)c3ccc(C(=O)NCc4ccccc4)cc3nc2s1` was inactive: -12.7%; that for `CCn1c(=O)cc(OCC(=O)NCc2ccccc2OC)c2ccccc21` was active: 118%.

In the case of `COc1ccc(C(=O)/C=C/c2cn(CC(O)CN3CCc4ccccc43)c3ccccc23)cc1` (stereo not drawn), the activation was inactive: -8.7%.

In the case of `COc1cc(Nc2nc(SCc3ccccc3Cl)nc3ccccc23)cc(OC)c1`, the activation is inactive: -22.1%.

Regarding `CCc1ccccc1NC(=O)CCCN1C(=O)CCn2nc(-c3cn(C)c4ccccc34)cc21`, the activation is inactive: 12.5%.

As for `COc1cccc(NC(=O)c2oc3ccccc3c2NC(=O)C2CCCCC2)c1`, the activation is inactive: -5.57%. The value for `CCOCc1cc(CN2CCN(c3ccccc3OC)CC2)c(O)c2ncccc12` was inactive: -22.7%; that for `COC(=O)c1cc(NC(=O)c2cc3sccc3n2Cc2ccc(Cl)cc2)cc(C(=O)OC)c1` was inactive: 1.22%. As for `CCOc1ccc(NC(=O)CSc2oc(-c3ccccc3)nc2S(=O)(=O)c2ccc(Cl)cc2)cc1`, the figure is inactive: -15.9%. As to `Cc1cc(N2CCC(C(=O)N(CC(C)C)CC(C)C)CC2)n2nc(C)c(-c3ccc(Cl)cc3)c2n1`, the activation was inactive: -18.5%.

On to `O=C1NC(NS(=O)(=O)c2ccccc2)(C(F)(F)F)C(=O)N1c1ccc(F)cc1` (stereo not drawn), for which the activation is inactive: 25.9%. As to `Cc1cc(C)cc(OCc2cc(=O)n3c(-c4ccccc4)csc3n2)c1`, the activation was inactive: -11.7%.

For the compound `CSc1ncc(Cl)c(C(=O)N(Cc2ccc(C)cc2)C2CCS(=O)(=O)C2)n1` (stereo not drawn), the activation is inactive: -6.32%. The value for `COc1ccccc1C1C=C(c2ccc(C(C)C)cc2)Nc2nnnn21` (stereo not drawn) was inactive: 0.651%; that for `Cc1cccc(CNC(=O)c2ccc3c(c2)c(C)c(C)n3Cc2ccccc2)c1` was inactive: -21.7%; that for `COc1ccccc1NC(=O)Cn1c(=O)c(CNc2ccccc2)cc2cc(OC)c(OC)cc21` was inactive: -46.8%. Take `O=C(c1cnn(-c2ccc(F)cc2)c1-n1cccc1)N1CCN(c2ccc(Cl)cc2)CC1`: the activation was inactive: 9.06%.

Consider `O=C1CCc2cc(S(=O)(=O)NCc3ccccc3Cl)cc3c2N1CC3`, for which the activation is inactive: 15.9%. The value for `CCN(CC)S(=O)(=O)c1ccc(C(=O)Nc2nc3ccc(Cl)cc3s2)cc1` was inactive: -2.97%; that for `O=S(=O)(c1ccccc1)c1nnn2c1nc(NCc1ccc(Cl)cc1)c1sccc12` was inactive: 0.621%; that for `COc1cc(OC)cc(-c2nc3nc(C)c(CCC(=O)Nc4ccc(C)cc4C)c(C)n3n2)c1` was inactive: -0.0662%. As for `O=C(CCn1ccc2cc(S(=O)(=O)N3CCCC3)ccc21)NCc1ccccc1F`, the figure is inactive: -7.74%; as for `CCOC(=O)N1CCN(Cc2nc3cc(NC(=O)c4cccc(C)c4)ccc3n2C(C)C)CC1`, inactive: 4.32%. The value for `COc1cccc(NC(=O)Cn2cc(S(=O)(=O)Cc3ccccc3F)c3ccccc32)c1` was inactive: 22.5%; that for `Cc1ccc(S(=O)(=O)c2nnn3c2nc(NCc2cccs2)c2sccc23)cc1` was inactive: -7.41%. `CCn1nc(C)c2c(-c3ccccc3)cc(=O)n(C(C)C(=O)NCc3ccccc3OC)c21` (stereo not drawn): the activation is inactive: -6.35%. The value for `COc1ccc(C(=O)Nc2ccc3c(c2)CCCN3S(=O)(=O)c2ccc(C)cc2)c(OC)c1` was inactive: -27.2%; that for `CCc1ccc(S(=O)(=O)c2cn(C)c3cc(N4CCCC4)c(F)cc3c2=O)cc1` was inactive: 2.93%; that for `COC(=O)c1nnn(-c2ccc(Br)cc2)c1C(=O)OC` was inactive: -0.836%. As for `O=C(NCc1ccco1)c1ccc2c(c1)N(Cc1ccc(Cl)cc1)C(=O)c1ccccc1S2(=O)=O`, the figure is inactive: -17.7%; as for `COc1cccc(NC(=O)C2CCCN(S(=O)(=O)c3cccc4nonc34)C2)c1` (stereo not drawn), inactive: 48.6%; as for `Cc1cn2c(=O)c(S(=O)(=O)Nc3ccc(F)cc3F)c(C)nc2s1`, inactive: 3.14%. As for `CCOC(=O)CC(NC(=O)CCc1c(C)nc2ncnn2c1C)c1ccc(C)cc1` (stereo not drawn), the figure is inactive: -3.28%; as for `CCOc1ccc(C(=O)NCCc2csc(-c3cccc(F)c3)n2)cc1OCC`, inactive: 3.05%; as for `CN(Cc1ccccc1)c1ccc(-c2nc(-c3ccncc3)no2)cc1[N+](=O)[O-]`, inactive: 13.3%. Regarding `Cc1cc(C)cc(C(=O)NCC(c2ccc(N(C)C)cc2)N2CCCC2)c1` (stereo not drawn), the activation is inactive: -20.4%.

In the case of `Oc1ccccc1Nc1nc2ccccc2n2nnnc12`, the activation was inactive: -18.1%. In the case of `O=C(NCc1ccc(Cl)cc1)c1ccc(Cn2c(=O)c3cccn3c3cccnc32)cc1`, the activation was inactive: -7.23%.

As to `O=C1CCc2cc(S(=O)(=O)NC(C(=O)Nc3cccc(F)c3)c3ccccc3)ccc2N1` (stereo not drawn), the activation is inactive: 7.27%.

On to `COc1ccc(-c2c(C)c3ccc(O)c(CN4CCCC(C)C4)c3oc2=O)cc1OC` (stereo not drawn), for which the activation is inactive: -23.1%. The value for `COc1ccc(S(=O)(=O)N2CCN(Cc3nc4ccc(C)cc4o3)CC2)cc1` was inactive: -8.55%; that for `O=C(Cn1c(=O)n(Cc2nc(-c3ccccc3)no2)c(=O)c2ccccc21)Nc1cccc(Cl)c1` was inactive: 8.96%; that for `Cc1ccc(C)c(Nc2nnc(-c3ccc(C)c(S(=O)(=O)NCC4CCCO4)c3)c3ccccc23)c1` (stereo not drawn) was inactive: -9.07%. As to `CCOc1ccc(N2C(=O)c3[nH]nc(-c4ccc(OC)cc4)c3C2c2cccs2)cc1` (stereo not drawn), the activation is inactive: 17.3%. The value for `COc1ccc(-c2nnc(SCC(=O)Nc3ccc(C)c(C)c3)s2)cc1` was active: 115%. As for `COCCCNC(=O)c1ccc2c(c1)N(Cc1ccccc1F)C(=O)c1ccccc1S2=O` (stereo not drawn), the figure is inactive: -28%; as for `COc1ccc(O)c(C2=Nc3ccccc3N=C(c3ccccc3)C2)c1`, inactive: -5.83%; as for `COc1ccc(-c2noc(CSc3nnc(C)n3-c3cccc(C)c3)n2)cc1`, inactive: 8.23%. As to `COc1ccccc1NC(=O)c1oc2ccccc2c1NC(=O)Cc1ccccc1`, the activation was inactive: 3.24%. Regarding `CCOC(=O)c1nc(Nc2ccc(C(=O)OC(C)C)cc2)c2ccccc2n1`, the activation was inactive: 32.2%.
